Consider four compounds from patent US8623864B2, “Thioridazine and derivatives thereof for reversing anti-microbial drug-resistance” (NOA Sic Aps, priority 2003, dated 2014).

In assay [1] the test system is E. faecalis and E. faecium strains. To be noted: regardless of susceptibility to commonly used antibiotics.
Assay [2] has as its system E. faecium strains. Description: microbe, parasite or virus in culture. To be noted: Enterococcus faecium.
Assay [3] relates to E. faecalis strains. Description: microbe, parasite or virus in culture. To be noted: Enterococcus faecalis.
The test system of assay [4] is E. faecalis strains. Description: MIC of antibiotics by the E-test. Format: cell-based, Enterococcus faecalis. To be noted: for MIC: Enterococcus faecalis. The method, then: (§1) Strains of E. faecalis and E. faecium were clinical isolates obtained from Sønderborg, Odense and Statens Serum Institut (SSI), Copenhagen, Denmark. According to the profile of vancomycin-resistance, tested strains were either vancomycin-sensitive, VanA- or VanB-positive enterococci. Resistance determination was performed in accordance to the National Committee for Clinical Laboratory Standards (NCCLS) and national guidelines (SSI).
(§2) Animal strains were isolated from the feces of pigs and poultry in Belgium and Denmark and donated by the Veterinary and Agrochemical Research Center (VAR), Brussels, Belgium and the Danish Veterinary Laboratory, Copenhagen, Denmark.
(§3) Oxoid Iso-Sensitest agar was purchased from Oxoid, and adjusted to pH 7.3.
(§4) The minimum inhibitory concentration (MIC) of each antibiotic against various strains employed in this study was determined by the E-test system (Sanchez et al. 1992) and checkerboard microdilution techniques (Eliopulos & Moellering 1991).

In assay [5] the test system is E. faecium strains. Kind of assay: MIC of antibiotics by the E-test. Format: cell-based, Enterococcus faecium. To be noted: for MIC: Enterococcus faecium. On the procedure:
as §1, §2, §3, §4

[6] abbreviates: read-out: MIC (agar dilution), human E. faecium strain 73047.
Setting [7] is: read-out: MIC (agar dilution), human E. faecium strains 76366, 79765, 87156, 91185.
[8] abbreviates: read-out: MIC (agar dilution), veterinary E. faecium strain 30658.
Where [9] appears, read: read-out: MIC (agar dilution), veterinary E. faecium strains 30651, 30656, 30665.
Setting [10] is: read-out: MIC (agar dilution), human E. faecalis strains A, B, C, D, E.
The mark [11] stands for this setting: read-out: MIC (agar dilution), veterinary E. faecalis strains VT 16, VT 22, VT 37, VT 71, DR 2698, DR 2891.
[12] abbreviates: human E. faecalis strain A (Van B).
Setting [13] is: human E. faecalis strain B (Van B).
Where [14] appears, read: human E. faecalis strain C (Van B).
Where [15] appears, read: human E. faecalis strain D (Van A).
The mark [16] stands for this setting: veterinary E. faecalis strain DR 2698.
The mark [17] stands for this setting: veterinary E. faecalis strain VT 37.
[18] abbreviates: veterinary E. faecalis strain VT 71.
Setting [19] is: veterinary E. faecalis strains VT16, VT 22, DR 2891.
The mark [20] stands for this setting: human E. faecium strains 73047, 91185.
The mark [21] stands for this setting: veterinary E. faecium strain 30651.
[22] abbreviates: veterinary E. faecium strain 30658.
Setting [23] is: veterinary E. faecium strains 30656, 30665.

Each structure is given as a SMILES string. Values after ≈ are worked out from the molar mass of the structure shown.

`CSc1ccc2c(c1)N(CCC1CCCCN1C)c1ccccc1S2` (racemic) [THIO, thioridazine]: the “Concentration inhibiting all strains” value in assay [1] lay in the range of 16 to 32 µg/mL. In addition, the MIC in the assay on E. faecium strains [2] (setting [6]), in the assay with E. faecium strains [2] (setting [7]), in the assay on E. faecium strains [2] (setting [8]), in the assay with E. faecium strains [2] (setting [9]), in the assay on E. faecalis strains [3] (setting [10]) and in the assay on E. faecalis strains [3] (setting [11]) was 16 µg/mL (≈ 43.2 µM) each time.

Consider `CN[C@H](CC(C)C)C(=O)N[C@H]1C(=O)N[C@@H](CC(N)=O)C(=O)N[C@H]2C(=O)N[C@H]3C(=O)N[C@H](C(=O)N[C@H](C(=O)O)c4cc(O)cc(O)c4-c4cc3ccc4O)[C@H](O)c3ccc(c(Cl)c3)Oc3cc2cc(c3O[C@@H]2O[C@H](CO)[C@@H](O)[C@H](O)[C@H]2O[C@H]2C[C@](C)(N)[C@H](O)[C@H](C)O2)Oc2ccc(cc2Cl)[C@H]1O` [vancomycin], for which the MIC with E. faecalis strains [4] (read-out: MIC (E-test), human E. faecalis strain A (Van B)) came to 48 µg/mL; with E. faecalis strains [4] (read-out: MIC (E-test), human E. faecalis strain B (Van B)) it was 4 µg/mL; in the assay on E. faecalis strains [4] (read-out: MIC (E-test), human E. faecalis strain C (Van B)) it was 32 µg/mL; with E. faecalis strains [4] (read-out: MIC (E-test), human E. faecalis strain E), 2 µg/mL; in the assay on E. faecalis strains [4] (read-out: MIC (E-test), veterinary E. faecalis strain DR 2698) it was 2 µg/mL; with E. faecalis strains [4] (read-out: MIC (E-test), veterinary E. faecalis strain VT 37) it was 4 µg/mL. The MIC in the assay on E. faecalis strains [4] (read-out: MIC (E-test), veterinary E. faecalis strain VT 71) was found to be 4 µg/mL; in the assay on E. faecalis strains [4] (read-out: MIC (E-test), veterinary E. faecalis strains VT16, VT 22, DR 2891), 6 µg/mL; in the assay with E. faecium strains [5] (read-out: MIC (E-test), human E. faecium strain 76366), 3 µg/mL; in the assay with E. faecium strains [5] (read-out: MIC (E-test), human E. faecium strain 79765) it was 3 µg/mL; in the assay on E. faecium strains [5] (read-out: MIC (E-test), human E. faecium strain 87156), 2 µg/mL; with E. faecium strains [5] (read-out: MIC (E-test), human E. faecium strains 73047, 91185) it was 3 µg/mL. Also, the MIC is 1.5 µg/mL in the assay on E. faecium strains [5] (read-out: MIC (E-test), veterinary E. faecium strain 30651); 1.5 µg/mL in the assay with E. faecium strains [5] (read-out: MIC (E-test), veterinary E. faecium strain 30658); 1.5 µg/mL in the assay with E. faecium strains [5] (read-out: MIC (E-test), veterinary E. faecium strains 30656, 30665). The “Interpretation (clinical susceptibility/resistance)” value is “R” with E. faecalis strains [4] (setting [12]); “R” in the assay on E. faecalis strains [4] (setting [13]); “R” in the assay with E. faecalis strains [4] (setting [14]); “R” in the assay on E. faecalis strains [4] (setting [15]); “S” with E. faecalis strains [4] (human E. faecalis strain E); “S” with E. faecalis strains [4] (setting [16]). For the same compound, the “Interpretation (clinical susceptibility/resistance)” value with E. faecalis strains [4] (setting [17]) is listed as “R”; with E. faecalis strains [4] (setting [18]), “R”; in the assay on E. faecalis strains [4] (setting [19]), “R”; in the assay with E. faecium strains [5] (human E. faecium strain 76366), “S”; in the assay on E. faecium strains [5] (human E. faecium strain 79765), “S”; with E. faecium strains [5] (human E. faecium strain 87156), “S”. In addition, the “Interpretation (clinical susceptibility/resistance)” value in the assay with E. faecium strains [5] (setting [20]), with E. faecium strains [5] (setting [21]), in the assay on E. faecium strains [5] (setting [22]) and in the assay with E. faecium strains [5] (setting [23]) was “S” throughout.

With `CN1CCN(CCCN2c3ccccc3Sc3ccc(Cl)cc32)CC1` [PCP, prochlorperazine], the “Concentration inhibiting all strains” value in assay [1] was 32 to 64 µg/mL. Further, the MIC was 32 µg/mL (≈ 85.6 µM) in the assay on E. faecium strains [2] (setting [6]); 64 µg/mL (≈ 171 µM) with E. faecium strains [2] (setting [7]); 32 µg/mL (≈ 85.6 µM) with E. faecium strains [2] (setting [8]); 64 µg/mL (≈ 171 µM) in the assay with E. faecium strains [2] (setting [9]); 64 µg/mL (≈ 171 µM) in the assay with E. faecalis strains [3] (setting [10]); 32 µg/mL (≈ 85.6 µM) in the assay with E. faecalis strains [3] (setting [11]).

Regarding `CC1(C)S[C@@H]2[C@H](NC(=O)[C@H](N)c3ccccc3)C(=O)N2[C@H]1C(=O)O` [ampicillin], the MIC in the assay on E. faecalis strains [4] (human E. faecalis strain A (Van B), read-out: MIC (E-test)) is 0.5 µg/mL; in the assay with E. faecalis strains [4] (human E. faecalis strain B (Van B), read-out: MIC (E-test)), 0.5 µg/mL; in the assay with E. faecalis strains [4] (human E. faecalis strain C (Van B), read-out: MIC (E-test)), 1 µg/mL; in the assay on E. faecalis strains [4] (human E. faecalis strain D (Van A), read-out: MIC (E-test)), 1 µg/mL; in the assay on E. faecalis strains [4] (human E. faecalis strain E, read-out: MIC (E-test)), 32 µg/mL; in the assay with E. faecalis strains [4] (veterinary E. faecalis strain DR 2698, read-out: MIC (E-test)) it was 1 µg/mL. The MIC with E. faecalis strains [4] (veterinary E. faecalis strain VT 37, read-out: MIC (E-test)) is 1 µg/mL; in the assay with E. faecalis strains [4] (veterinary E. faecalis strain VT 71, read-out: MIC (E-test)), 2 µg/mL; in the assay with E. faecalis strains [4] (veterinary E. faecalis strains VT16, VT 22, DR 2891, read-out: MIC (E-test)) it was 1 µg/mL; in the assay with E. faecium strains [5] (human E. faecium strain 79765, read-out: MIC (E-test)), 24 µg/mL; in the assay on E. faecium strains [5] (human E. faecium strain 87156, read-out: MIC (E-test)) it was 48 µg/mL; with E. faecium strains [5] (human E. faecium strains 73047, 91185, read-out: MIC (E-test)) it was 48 µg/mL. Moreover, the MIC with E. faecium strains [5] (veterinary E. faecium strain 30651, read-out: MIC (E-test)) stood at 8 µg/mL; in the assay with E. faecium strains [5] (veterinary E. faecium strain 30658, read-out: MIC (E-test)), 4 µg/mL; with E. faecium strains [5] (veterinary E. faecium strains 30656, 30665, read-out: MIC (E-test)), 6 µg/mL. The “Interpretation (clinical susceptibility/resistance)” value in the assay with E. faecalis strains [4] (setting [12]) is reported as “S”; with E. faecalis strains [4] (setting [13]), “S”; with E. faecalis strains [4] (setting [14]) it was “S”; in the assay with E. faecalis strains [4] (setting [15]), “S”; with E. faecalis strains [4] (human E. faecalis strain E), “R”; in the assay with E. faecalis strains [4] (setting [16]) it was “S”. Also, the “Interpretation (clinical susceptibility/resistance)” value in the assay on E. faecalis strains [4] (setting [17]) is “S”; with E. faecalis strains [4] (setting [18]), “S”; with E. faecalis strains [4] (setting [19]), “S”; in the assay on E. faecium strains [5] (human E. faecium strain 76366), “R”; with E. faecium strains [5] (human E. faecium strain 79765), “R”; in the assay on E. faecium strains [5] (human E. faecium strain 87156), “R”. Besides, the “Interpretation (clinical susceptibility/resistance)” value with E. faecium strains [5] (setting [20]), with E. faecium strains [5] (setting [21]), with E. faecium strains [5] (setting [22]) and in the assay with E. faecium strains [5] (setting [23]) was “R” throughout.
